According to publication PMC4336329 (PLoS ONE, 2015):
Out of some 310,000 compounds screened, about 2,200 (0.71%) showed an effect of 50% or more. The effect is printed as a negative number. This is one part of the list.

target: human ether-à-go-go-related gene (hERG) potassium channel (human, UniProt Q12809); experiment: primary screen, population patch clamp on CHO cells stably expressing hERG
Sequence (Q12809 whole entry, looked up): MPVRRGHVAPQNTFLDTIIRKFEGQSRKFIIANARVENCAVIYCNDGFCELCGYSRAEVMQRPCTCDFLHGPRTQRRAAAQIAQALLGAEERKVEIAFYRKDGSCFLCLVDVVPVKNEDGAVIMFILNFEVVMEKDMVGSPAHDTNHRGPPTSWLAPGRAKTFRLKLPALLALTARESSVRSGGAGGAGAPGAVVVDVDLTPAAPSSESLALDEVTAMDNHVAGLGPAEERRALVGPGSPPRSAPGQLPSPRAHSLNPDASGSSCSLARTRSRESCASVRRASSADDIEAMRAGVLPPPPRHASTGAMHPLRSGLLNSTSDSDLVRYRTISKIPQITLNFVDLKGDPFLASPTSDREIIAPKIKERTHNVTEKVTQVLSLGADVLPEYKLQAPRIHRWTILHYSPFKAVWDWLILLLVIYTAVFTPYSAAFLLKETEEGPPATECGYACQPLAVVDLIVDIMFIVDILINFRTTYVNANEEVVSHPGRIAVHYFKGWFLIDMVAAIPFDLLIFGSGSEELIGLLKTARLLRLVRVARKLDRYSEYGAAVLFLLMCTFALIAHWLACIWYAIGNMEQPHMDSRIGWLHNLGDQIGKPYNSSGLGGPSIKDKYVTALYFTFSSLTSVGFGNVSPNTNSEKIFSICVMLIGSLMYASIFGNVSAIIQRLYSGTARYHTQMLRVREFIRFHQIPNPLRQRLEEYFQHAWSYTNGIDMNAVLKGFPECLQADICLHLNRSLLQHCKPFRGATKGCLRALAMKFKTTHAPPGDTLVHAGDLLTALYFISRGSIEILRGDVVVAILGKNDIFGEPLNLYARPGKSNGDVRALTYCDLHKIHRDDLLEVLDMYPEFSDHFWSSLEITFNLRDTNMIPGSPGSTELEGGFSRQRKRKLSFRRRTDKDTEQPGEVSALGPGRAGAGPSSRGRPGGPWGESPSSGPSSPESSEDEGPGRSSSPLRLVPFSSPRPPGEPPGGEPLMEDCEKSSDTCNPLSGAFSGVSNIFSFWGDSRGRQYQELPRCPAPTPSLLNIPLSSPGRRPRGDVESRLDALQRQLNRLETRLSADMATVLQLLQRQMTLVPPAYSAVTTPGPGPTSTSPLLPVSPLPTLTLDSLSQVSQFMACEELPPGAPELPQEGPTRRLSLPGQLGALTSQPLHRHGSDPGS

Structure (SMILES) | hERG current change (%, negative = inhibition) at 1uM
O=C(COC(=O)C1CCN(S(=O)(=O)c2ccc3c(c2)OCCO3)CC1)Nc1ccccc1OC(F)F | 8.69%
CCOC(=O)C(NCc1ccccc1OC)(NC(=O)c1ccccc1)C(F)(F)F (centres unmarked) | 3.19%
CC(=O)Nc1ccc(Oc2ccc3nc(C)[nH]c3c2)cc1 | 14.8%
COc1ccc(CCNC(=O)CCC2COc3ccccc3O2)cc1OC (centres unmarked) | 4.55%
O=C(CSc1c(Cl)cccc1Cl)N1CCC(c2nc3ccccc3s2)CC1 | 6.94%
COc1ccc(-c2cccc(C3CC=CC4C3C(=O)N(Cc3ccccc3)C4c3ccc(OC)c(Cl)c3)c2)cc1 (centres unmarked) | 19.3%
C=C1CCN([C@@H](Cc2ccccc2)C(=O)N2CCOCC2)S(=O)(=O)c2ccccc21 | 10.8%
O=C(Cn1c2ccccc2c(=O)c2ccccc21)Nc1ccccc1F | 2.2%
C[C@@H](C(=O)CC(=O)OC(C)(C)C)[C@@H](O)c1ccccc1 | 18.1%
COc1ccc(N2CCN(CCOc3ccc4c(C)cc(=O)oc4c3)CC2)cc1 | -37.8%
O=C1CC(=O)Nc2cc(S(=O)(=O)N3CCOc4ccccc43)ccc2N1 | 13%
Oc1ccc(Nc2nc(-c3cccnc3)cs2)cc1 | 12%
Cc1ccc(S(=O)(=O)N2CCN(c3cccc(C)c3)CC2)cc1 | 15.6%
O=C(c1ccco1)N1CCN(Cc2ccc(F)cc2Cl)CC1 | 2.37%
O=C(O)C1CC=C(Cl)CC1C(=O)NCc1ccccc1 (centres unmarked) | 11.2%
COc1cccc(NC(=O)CNC(=O)c2ccc(C)cc2)c1 | 14.3%
COc1cccc(CNC(=O)C2CCN(S(=O)(=O)c3c(C)nn(C)c3C)CC2)c1 | 5.89%
Cc1cccc(NC(=S)NNC(=O)c2csc3c2CCCC3)c1 | 14.3%
CCc1ccc(C(=O)COC(=O)c2cc([N+](=O)[O-])ccc2NCCO)cc1 | 4.59%
Cc1ccc(CSc2ccc3nnc(-c4ccccn4)n3n2)cc1 | -36.5%
CC1CCC(NC(=O)CN2CCC(n3nnc4cc(F)ccc43)CC2)CC1 (centres unmarked) | -34.9%
O=C(c1ccc(Oc2ccccc2)cc1)C1CCCN(C(=O)c2cnccn2)C1 (centres unmarked) | 4.18%

Structure (SMILES) | hERG current change (%, negative = inhibition) at 1uM
COc1ccc(CCC(=O)NCC(=O)OCc2ccccc2)cc1 | 13%
CCOC(=O)C1CCN(C(c2cc3ccc(C)cc3[nH]c2=O)c2nnnn2C2CCCCC2)CC1 (centres unmarked) | -10.5%
COC(=O)[C@@]12CCCN1[C@H](c1ccc(-c3ccc(F)cc3)cc1)[C@H]1C(=O)N(C)C(=O)[C@H]12.O=C(O)C(F)(F)F | -0.74%
S=C(c1ccc(N2CCCC2)c(Br)c1)N1CCCCC1 | 9.49%
Cc1ccc(SCCC(=O)N(C)CC(=O)Nc2c(C)cccc2C)cc1 | -13.7%
CC(=O)c1sc(-c2ccc(Cl)cc2)cc1N | 13.5%
CCOC(=O)c1ccc(Oc2cn[nH]c2-c2ccc(OCC(=O)NN)cc2O)cc1 | 6.02%
CC(C(=O)Nc1ccc(O)c(C(=O)O)c1)N1C(=O)/C(=C/c2cccs2)SC1=S (centres unmarked) | 13.4%
CN1CCN(c2nnc(-c3ccccc3)c(-c3ccccc3)n2)CC1 | 7.84%
Cc1cc(NC(=O)CCC(=O)N(CCc2ccccc2)C(C(=O)NC2CCCC2)c2ccco2)no1 (centres unmarked) | -8.68%
COC(=O)Cn1c(C)c(C(C)=O)c(C(C)=O)c1C | 12.7%
OCCN(Cc1ccccc1)Cc1cccc(F)c1 | -2.85%
COc1cc(/C=C2/CC(C)OC2=O)c([N+](=O)[O-])cc1OC (centres unmarked) | 13.1%
CCN(CC)C(=O)Cn1cc(C(=O)C(=O)N2CCN(c3ccccc3)CC2)c2ccccc21 | 6.1%
O=c1cc(Cl)[nH]n(-c2ccccc2)c1=O | 14.8%
Cc1cccc(CCNC(=O)CCS(=O)(=O)c2cc3c(cc2C)NC(=O)CO3)c1 | -7.04%
CCN(CC)S(=O)(=O)c1cc(NC(=O)C(C)Nc2ccccc2N2CCOCC2)ccc1C (centres unmarked) | 14.8%
CCOc1ccc(CCNC(=O)C2CCCN(c3nnc(-n4cccc4)s3)C2)cc1OCC (centres unmarked) | 10.6%
CN1C(=O)C(=O)/C(=C(/O)c2ccc(Br)cc2)C1c1ccc(F)cc1 (centres unmarked) | -1.35%
COCCN(C(=O)CCC(=O)Nc1cc(C)on1)C(C(=O)NC1CCCC1)c1ccccc1C (centres unmarked) | 16.8%
CC(=O)NCCOc1nc(N(C)C)nc(N2CCCCC2)n1 | -1.33%
COCCn1c(SCC(=O)c2cccc(OC)c2)nnc1-c1ccco1 | 0.747%
